# According to paper PMC10668032:
# Some of the results follow. At the low end of the ranking, values are background and their order means little.
# Molecular target: SIX1-Q177R homeodomain (UniProt Q15475)
# Test: universal protein binding microarray
# Settings: Universal all-10-mer PBM (8x60K, AMADID 030236), 300 nM GST-tagged protein, Alexa Fluor 488 anti-GST; buffer, salt, pH and temperature not stated; high values mean tight binding; most listed sequences are background and not binding sites; double strand, one strand shown
row,Sequence,binding signal
1,AGGATGAG,-0.166 E-score
2,CTGGACAG,-0.198 E-score
3,GATGCTAA,-0.0395 E-score
4,TTATCAAA,-0.0157 E-score
5,AGTAACCG,-0.126 E-score
6,GATCTGAA,-0.0826 E-score
7,GGACGGTA,-0.133 E-score
8,CCCCACCA,0.145 E-score
9,AAGTCAAA,-0.304 E-score
10,AGACACCA,0.458 E-score
11,GTTTGCAA,-0.00683 E-score
12,GATGCGTA,-0.0193 E-score
13,ATAACAAT,-0.0462 E-score
14,GTGCTGTA,0.164 E-score
15,TAAACTTA,-0.0745 E-score
16,GAAATGAC,-0.026 E-score
17,ATTTCAGG,-0.0309 E-score
18,TGCGCCCA,-0.0981 E-score
19,TACTAAGA,0.0294 E-score
20,ACTCCAGA,0.0779 E-score
21,TCTCATAA,-0.00628 E-score
22,GGTTAGAC,-0.0877 E-score
23,TAAGCGAA,-0.174 E-score
24,TACATCTA,-0.226 E-score
25,ACTACGAG,0.0471 E-score

row,Sequence,binding signal
1,CAACAGCA,-0.142 E-score
2,GACAGTTA,-0.0963 E-score
3,CAGTTTCG,-0.11 E-score
4,ACAAAATC,-0.328 E-score
5,CAGACATC,-0.14 E-score
6,ATTTCGGG,-0.122 E-score
7,CATGTCCG,-0.149 E-score
8,GGGAACAC,0.368 E-score
9,CGTATACC,0.0016 E-score
10,ATCCTTTC,0.0221 E-score
11,ATTGCTAG,-0.016 E-score
12,CTAGCACC,0.203 E-score
13,AAGTTCTG,-0.224 E-score
14,AACGTACT,-0.0149 E-score
15,CGAACAGA,-0.184 E-score
16,GTCCCCCA,-0.277 E-score
17,ACTGTTCC,-0.249 E-score
18,CTACATGC,-0.101 E-score
19,GAATGTCC,-0.205 E-score
20,CCGTGGTA,0.166 E-score
21,GTTCCCCA,-0.0128 E-score
22,CCACGCAA,0.0824 E-score
23,ACGGTTGA,-0.189 E-score
24,TAAAGATA,-0.0162 E-score
25,GCCAGATA,0.0012 E-score

row,Sequence,binding signal
1,CGCATACG,-0.0785 E-score
2,CTACCAAC,0.0578 E-score
3,CACTACTC,0.21 E-score
4,AGACAGAA,-0.129 E-score
5,ATTCGGCA,0.0233 E-score
6,ATCCTAAC,-0.0309 E-score
7,CTGATAAC,0.0865 E-score
8,CACCTGTA,0.232 E-score
9,GACGACGC,-0.115 E-score
10,CTAACAAC,-0.101 E-score
11,AGCTCACG,-0.255 E-score
12,ATCCATCC,-0.0336 E-score
13,AACTCCTC,0.0476 E-score
14,TAACCCTA,0.143 E-score
15,GCTCAAAC,-0.0213 E-score
16,CCGTCGAG,0.112 E-score
17,CATATTTC,0.0184 E-score
18,CAAGCTTC,-0.292 E-score
19,CAATAAGA,-0.0698 E-score
20,ACGGGTGA,0.146 E-score
21,AGTGACAC,0.469 E-score
22,AAATTTGA,0.0631 E-score
23,AACATTAC,-0.133 E-score
24,GAACGGAC,0.0365 E-score
25,AACTTTCC,-0.201 E-score

row,Sequence,binding signal
1,ACGTCGAA,-0.249 E-score
2,ATGGCCTC,-0.146 E-score
3,CTCTATAC,-0.0659 E-score
4,CTCCTAAC,0.101 E-score
5,AGTATTTC,-0.203 E-score
6,ACTAACTA,0.00173 E-score
7,TCGCCTCA,-0.238 E-score
8,GAGGCGAC,-0.0751 E-score
9,ACCTCACA,0.244 E-score
10,GATCCGAC,0.0461 E-score
11,CCTACAGG,-0.0239 E-score
12,AAATATTA,0.184 E-score
13,AGTGAAAC,-0.032 E-score
14,ATGCGATC,-0.102 E-score
15,AGTTCTTG,-0.155 E-score
16,CCATTAAC,0.0974 E-score
17,GTATTTGA,-0.113 E-score
18,TGTTGTAA,-0.118 E-score
19,TATATATA,0.181 E-score
20,CGAAGCTA,-0.261 E-score
21,ACCGGCTA,0.0742 E-score
22,ACCCAGTC,-0.0259 E-score
23,CGTGGTCA,-0.147 E-score
24,TCAAGCGA,-0.198 E-score
25,GTAGGGGA,0.0746 E-score

row,Sequence,binding signal
1,GGCATGGA,-0.0648 E-score
2,AACTGACA,0.207 E-score
3,CTCATTGC,-0.0338 E-score
4,AGTCGGTG,0.297 E-score
5,AGGTTAAA,-0.0439 E-score
6,AGGAACTG,-0.385 E-score
7,CGTGTTCA,0.409 E-score
8,ATCTTTGA,-0.153 E-score
9,CATGACTA,-0.0566 E-score
10,AAGCCAAC,-0.0607 E-score
11,GCTTTGTA,-0.103 E-score
12,CGTTACTA,-0.102 E-score
13,CAAGAGAG,-0.2 E-score
14,ACAAGAGA,0.0143 E-score
15,ATGGGAGG,-0.0623 E-score
16,AAGCATCT,-0.249 E-score
17,CTCCTATA,-0.0502 E-score
18,ATCTAGGG,-0.113 E-score
19,AGAGAACT,-0.047 E-score
20,TACCTGGA,0.0313 E-score
21,GCGAGACA,0.249 E-score
22,CTAACCCC,0.223 E-score
23,TATGAAAA,-0.202 E-score
24,CCATCCAG,-0.012 E-score
25,CAGCCGGA,-0.0688 E-score

row,Sequence,binding signal
1,CAAGCATA,-0.133 E-score
2,TAGACCGA,0.087 E-score
3,AATTATTC,-0.172 E-score
4,ACACCTGG,0.448 E-score
5,AACAGCGC,-0.175 E-score
6,AGGCGCCC,-0.295 E-score
7,CAAAGGCC,-0.285 E-score
8,CGCACCCC,0.207 E-score
9,CATTAATG,0.0899 E-score
10,ACATCGCC,0.102 E-score
11,GATACAGA,-0.106 E-score
12,GAAACACA,0.108 E-score
13,CACCATAG,0.292 E-score
14,ACCAACGG,0.126 E-score
15,TAACGCTA,0.0739 E-score
16,ACCAATTC,-0.162 E-score
17,ATGGTAAA,-0.162 E-score
18,GTCGCGGA,0.0112 E-score
19,AGTCTCTA,-0.274 E-score
20,AATTAAGT,0.0101 E-score
21,ACATTTTA,-0.121 E-score
22,CCCCACCC,0.278 E-score
23,ACAAGCCT,-0.145 E-score
24,AGGCAGCC,-0.141 E-score
25,CATCGAGC,-0.11 E-score

row,Sequence,binding signal
1,AAGAGAAG,-0.0968 E-score
2,GCATTCGA,0.0752 E-score
3,CCAATGGA,0.0185 E-score
4,AGTTGCCC,-0.0853 E-score
5,GAAATATC,-0.0287 E-score
6,GAGAATTA,-0.251 E-score
7,AACATCAC,-0.000915 E-score
8,CCTAGAGG,0.00898 E-score
9,ATAGCGCG,-0.0439 E-score
10,ACATGCTA,-0.188 E-score
11,ATTGCCTG,-0.075 E-score
12,GAGCGTTA,-0.0157 E-score
13,ACCGAGCG,0.0767 E-score
14,GCTGTGAC,0.0771 E-score
15,GCAAAGCA,-0.116 E-score
16,AGAGGTAC,-0.00898 E-score
17,CCACCGCG,0.0122 E-score
18,ACCATCGC,-0.0465 E-score
19,AGGTACCG,-0.213 E-score
20,CGGAAGAA,-0.224 E-score
21,ACTCTTGA,0.0639 E-score
22,ACATATGA,-0.0772 E-score
